Test results: PubChem BioAssay AID1345083 (National Center for Advancing Translational Sciences (NCATS), 2018)
About 6,200 (6.6%) of roughly 94,000 compounds were called active. Inconclusive results, whose numbers are uncertain, are shown with a selection of clear calls. Calls come from the whole dose curve; as a rule, active = well fitted inhibition curve with a large enough effect; inconclusive = small, poorly fitted or top-dose-only effect; inactive = flat fitted curve, though single readings scatter. Potencies of inconclusive entries are doubtful fits and often do not repeat.

assay: Cytotoxic Profiling in HEK 293 Cell Line of Diverse Libraries Using Quantitative High-Throughput Screening; details: HEK 293 viability, ATP luminescence (CellTiter-Glo), 48-72 h; series mostly up to 115 µM; note: nearly all actives have a fitted effect of over 60% in size
Method in brief: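 Pintool-delivered compounds were incubated with HEK 293 cells (250 cells/well) at 37 degree Celsius for 48 or 72 hr. ATP-dependent luminescence (CellTiter-Glo) then reported remaining viable cells.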
Potency is the fitted concentration of half-maximal effect; tags give direction and shape of the fitted curve.

Structure (SMILES)	Potency
CCCN1C(=O)CC[C@H]2CN(c3cc(OC)nc(N)n3)CC[C@H]21	inactive
CC1(COCC2CC2)COc2ccc(C(=O)Nc3ccc(Cl)cc3)cc2N1 (centres undefined)	active: 28.2 µM
O=C1NCC2(CCN(C(=O)c3ccc(C(F)(F)F)cc3)CC2)Oc2ccccc21	inconclusive: 56.2 µM [inhibitor, partial curve, poor fit]
Cc1ccc(NC(=O)Cn2ccn3nc(-c4ccccc4)c(CO)c3c2=O)cc1	inconclusive: 50.1 µM [inhibitor, partial curve, poor fit]
O=C(Nc1ccc(Oc2ccccc2)cc1)N[C@H]1CO[C@H]2[C@@H]1OC[C@@H]2n1cc(-c2ccccc2)nn1	inconclusive: 39.8 µM [inhibitor, partial curve, poor fit]
CO[C@H]1C(=O)N(C(C)C)[C@H]1C1CCN(C(=O)c2cc(C)n(C)n2)CC1	inactive
CCc1noc(-c2nc(-c3ccccc3F)no2)n1	inconclusive: 89.1 µM [inhibitor, single point]
COc1ccccc1NC(=O)N1CCOc2ccc(CN3CCc4ccccc4C3)cc2C1	inconclusive: 50.1 µM [inhibitor, partial curve, poor fit]
O=C(NC1CCN(c2nccc(Nc3ccccc3Cl)n2)CC1)c1ccccc1Cl	active: 39.8 µM
COc1ccc(CN2CCCC3(Cc4ccccc4CNC3=O)C2)c(OC)n1 (centres undefined)	inconclusive: 79.4 µM [inhibitor, partial curve, poor fit]
COc1ccc(-c2cc(C(=O)NCc3cc(C)on3)c3c(c2)N(C)CCO3)cc1OC	inconclusive: 112 µM [inhibitor, single point]
Cc1cccc(C(=O)N2CCC(Cc3nncn3Cc3ccccc3)CC2)c1	inconclusive: 89.1 µM [inhibitor, partial curve, poor fit]
CC(C)SCC(=O)N1CCC2(CC1)CC(c1ccccc1)C(=O)N2C (centres undefined)	inactive
O=C(CCC1CCN(S(=O)(=O)c2cccc(F)c2)CC1)N1CCc2ccccc2C1	inconclusive: 89.1 µM [inhibitor, single point]
O=C(Nc1ccc2c(c1)CCC2)N1CCc2c(nc3cc(-c4ccccc4)[nH]n3c2=O)C1	inactive
CNC(=O)c1cc(C)nc2onc(C3CCCN(C(=O)c4ccccn4)C3)c12 (centres undefined)	inactive
O=C(Cc1ccc2c(c1)OCO2)N1CCOCC2(CN(Cc3cc(F)cc(F)c3)C2)C1	active: 56.2 µM
CC1=C(C(=O)OC(C)C)C(c2ccccc2C)N2C(CC(=O)NC3CC3)=CSC2=N1 (centres undefined)	inconclusive: 44.7 µM [inhibitor, partial curve]
Cc1cccc(-n2nc(-c3c(C)nc4scc(CC(=O)NC5CC5)n4c3=O)cc2C)c1	inactive
c1ccc(CN2CCNc3cc(-c4ccncc4)ncc3C2)cc1	inconclusive: 112 µM [inhibitor, partial curve]
CC(C)N1CCN(Cc2ccccc2C#Cc2ccccc2)CC1CCO (centres undefined)	inconclusive: 44.7 µM [inhibitor, partial curve, poor fit]
COc1ccc(NC(=O)c2ccc3c(c2)OCCN(C2CCC2)C3)cn1	inconclusive: 100 µM [inhibitor, partial curve]
O=C(Cn1ccn2nc3c(c2c1=O)CCCCC3)Nc1ccccc1C(F)(F)F	inconclusive: 50.1 µM [inhibitor, partial curve, poor fit]

Structure (SMILES)	Potency
COCCN1C(=O)[C@@H]2C[C@@H](CN2Cc2ccc(Cl)cc2)Oc2ccccc21	inconclusive: 63.1 µM [inhibitor, full curve]
COC1C(=O)N(c2cccc(F)c2)C12CCN(S(=O)(=O)c1ccccc1C)CC2 (centres undefined)	inconclusive: 35.5 µM [inhibitor, full curve]
O=C1C(N2CCN(S(=O)(=O)Cc3ccc(Cl)cc3)CC2)CCN1Cc1cccnc1 (centres undefined)	inconclusive: 89.1 µM [inhibitor, single point]
O=C(N1CCCC(n2cc(-c3nc(-c4ccccc4)no3)nn2)C1)C1(c2ccccc2)CC1 (centres undefined)	active: 44.7 µM
COC1C(=O)N(c2cccc(F)c2)C12CCN(S(=O)(=O)c1cccs1)CC2 (centres undefined)	inconclusive: 89.1 µM [inhibitor, single point]
CS(=O)(=O)c1ccc(OCC2(CNCc3cccc(C(F)(F)F)c3)C[C@@H](O)[C@@H](O)C2)cc1 (some centres undefined)	active: 79.4 µM
O=C(NC1CCN(Cc2ccc(-c3ccsc3)cc2)C1)c1ccccc1F (centres undefined)	inconclusive: 50.1 µM [inhibitor, partial curve, poor fit]
Cc1ccc(CNC(=O)Cn2c(N3CCc4ccccc4C3)nc(C)cc2=O)cc1	inconclusive: 50.1 µM [inhibitor, partial curve, poor fit]
O=[S+]([O-])(c1cccs1)N1CCCC2(CC(Cc3ccccc3)=NO2)C1 (centres undefined)	inconclusive: 63.1 µM [inhibitor, partial curve, poor fit]
CCn1ccc(C(=O)N2CCCN(c3cc(-c4ccc(OC)cc4)[nH]n3)CC2)n1	inactive
CN1Cc2cccn2CC1CNC(=O)c1ccco1 (centres undefined)	inactive
COC(=O)C1=C(C)N=C2SC=C(CC(=O)N3CCCC3)N2C1c1ccccc1OC (centres undefined)	inactive
COC[C@@H]1CNC[C@H]1c1nc(C)no1	active: 89.1 µM
CC(=O)NCCC(=O)N1Cc2ccccc2CC2(CCCN(Cc3cccnc3)C2)C1 (centres undefined)	inactive
COCCn1ccc2c(C3=CCOCC3)nc(-c3cccc(N4CCOCC4)c3)cc21	inconclusive: 112 µM [inhibitor, partial curve]
CCCn1cc(CN2CCc3nc(N4CCN(C)CC4)[nH]c(=O)c3CC2)c2ccccc21	inactive
COCCNC(=O)N1CCCC(CNC(=O)c2cccc3ccccc23)C1 (centres undefined)	inactive
Cc1ccccc1N1CCN(C(=O)c2noc(-c3ccc[nH]c3=O)n2)CC1	inactive
COc1ccc(OCC(O)CN2CCC(=O)N(CC3CC3)Cc3cc(OC)ccc32)cc1 (centres undefined)	inactive
COc1ccc(CN2CCNc3cnc(OCc4cccnc4)cc3C2)cc1	inconclusive: 100 µM [inhibitor, partial curve, poor fit]
CN(C)c1cccc(C(=O)N2CCC[C@H]2c2nc(-c3ccc(F)cc3)no2)c1	inconclusive: 44.7 µM [inhibitor, partial curve]
Cn1cncc1CNC(=O)c1cc(-c2ccc(F)cc2)cc2ncn(C)c12	inactive
Cn1ncc2c(C(=O)Nc3cccc(Cl)c3)cc(-c3ccc(Cl)cc3Cl)nc21	active: 22.4 µM

Structure (SMILES)	Potency
CN(C)C[C@@H]1CN(S(C)(=O)=O)C[C@H]1NC(=O)c1cnco1	inactive
COc1ccc(OCC2CN(CCc3ccccc3)S(=O)(=O)c3cnccc3O2)cc1 (centres undefined)	inconclusive: 79.4 µM [inhibitor, partial curve, poor fit]
CCOc1ccccc1NC(=O)N1CC[C@@H](c2nc(C)no2)[C@@H](NC(=O)C2CC2)C1	inactive
COc1ccc(-c2noc([C@H](C)O)c2C(=O)NC(C)(C)C)cc1	inactive
COc1ccc(-n2c(=O)c(C(=O)N3CCOCC3)nc3cccnc32)cc1	inactive
Cc1cccc(N(C)C(=O)Cn2c(-c3cccc(Cl)c3)nc(C)c(CCO)c2=O)c1	active: 35.5 µM
COc1ccc(NC(=O)COc2ccc(-c3nnc4n3CCCC4)cc2)c(OC)c1	inactive
CCN(Cc1ccccc1)C(=O)CC1C(=O)NCCN1CCc1ccccc1 (centres undefined)	inconclusive: 89.1 µM [inhibitor, single point]
COc1cccc(-c2ccc(C(=O)NCCNC(=O)C(C)C)cc2)c1	inconclusive: 112 µM [inhibitor, partial curve, poor fit]
CCC1c2nccn2CCCN1C(=O)CCc1ccc(OC)c(OC)c1 (centres undefined)	inactive
O=C1COc2ccc(OCc3ccccc3)nc2CN1Cc1ccccc1F	inconclusive: 100 µM [inhibitor, partial curve, poor fit]
COc1ccc(C(=O)N2CCN(Cc3ccccc3-c3cccnc3)CC2)cc1	inconclusive: 56.2 µM [inhibitor, partial curve, poor fit]
Cc1ccccc1[S+](=O)([O-])N1CCC2OCCN(Cc3ccccc3F)C(=O)C2C1 (centres undefined)	inconclusive: 70.8 µM [inhibitor, partial curve]
CCN1CCN(C(=O)c2cn3cc(-c4ccccc4)sc3n2)CC1	inactive
CC1=C[C@@H](CN(C)CCC#N)[C@H](C(C)C)C[C@H]1Cc1nnc(-c2ccccc2F)o1	active: 79.4 µM
COc1ccc(CN[C@H]2C[C@@H](Cc3cc(CN(C)c4ccccc4)on3)C2(C)C)cc1	active: 28.2 µM
C[C@]1(CO)C2CC[C@@H](O)[C@@H](CC(=O)N3CCC[C@H]3CO)[C@]2(C)CC[C@H]1OC(=O)Nc1ccccc1 (some centres undefined)	inactive
Cc1ccc(C(=O)N2CCC(N3CCCC(C(=O)N4CCCC4)C3)CC2)s1 (centres undefined)	inactive
Cc1nn2c(c1-c1ccccc1-c1ccccc1)N(C(=O)c1cccnc1)CCC2	inactive
CCc1nc2c(c(-c3ccc(Cl)cc3)n1)CN(C(=O)CCl)CC2	inconclusive: 22.4 µM [inhibitor, full curve, poor fit]
Cc1c(Cl)c(C(=O)N2CCCC(C)(Cc3ccc4c(c3)OCO4)C2)nn1C (centres undefined)	inconclusive: 35.5 µM [inhibitor, partial curve, poor fit]
Cn1cc(-c2ccc3c(n2)CN(CCOc2ccccc2)C(=O)CO3)cn1	inconclusive: 50.1 µM [inhibitor, partial curve]
O=C(N[C@H]1CO[C@H]2[C@@H]1OC[C@@H]2n1cc(-c2ccccn2)nn1)c1ccc(C(F)(F)F)cc1	inconclusive: 89.1 µM [inhibitor, single point]
